Experimental data published in PubChem BioAssay AID651687 (Broad Institute, 2012).
About 600 (0.17%) of roughly 350,000 compounds were called active. This list was built around the results that the source calls inconclusive (neither active nor inactive); the mix of calls is not that of the screen.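 How the source made its calls: active means every replicate shows inhibition of at least 40%; inconclusive means mean inhibition at least 40% but some replicate below; inactive means the rest.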

assay: inhibitors of PGC1a acetylation signal, primary screen, cell-based, U2OS, AlphaScreen, inhibitor mode (AID 651687); conditions: AlphaScreen anti-acetyl-lysine, at 15.6 µM, active compounds read high, with virally co-expressed GCN5 acetyltransferase;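 further: 0% = neutral control wells and 100% = positive control wells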

SMILES | inhibition
C[C@H]1CN([C@@H](C)CO)S(=O)(=O)c2ccc(C#CC3CCCCC3)cc2O[C@@H]1CN(C)Cc1cccnc1 | active: 63.9%
C[C@H]1CN([C@@H](C)CO)C(=O)c2cc(NC(=O)Cc3ccccc3)ccc2O[C@@H]1CN(C)S(=O)(=O)c1cccs1 | inactive: -5.26%
C[C@H](NS(=O)(=O)c1ccc2c(c1)OCCCO2)C(=O)N1CCN(Cc2ccccc2)CC1 | inconclusive: 47.3%
Cn1nc(C(C)(C)C)cc1NC(=O)C1(C)CCN1C(=O)C1(c2ccccc2)CCCC1 (configuration not stated) | inconclusive: 55.2%
O=C(N=Nc1c(O)[nH]c2ccccc12)c1cc(-c2cccs2)[nH]n1 | inconclusive: 47.8%
Cc1nc(Nc2ccc3c(c2)OCCO3)c2nnn(Cc3ccccc3Cl)c2n1 | inconclusive: 56.2%
C=CCN1C(=O)C(CC(=O)Nc2ccccc2F)S/C1=N\c1nccs1 (configuration not stated) | inconclusive: 48.6%
CC(CCC(=O)O)C1CCC2C3CCC4CC(O)CCC4(C)C3CC(O)C12C (configuration not stated) | inconclusive: 49.3%
CCc1ccc(S(=O)(=O)/N=C2\C=C(Nc3ccc(O)cc3)C(=O)c3ccccc32)cc1 | active: 63.4%
Cc1nc(Nc2ccc(S(N)(=O)=O)cc2)sc1C(=O)Nc1ccccc1 | inconclusive: 40.5%
CC(=O)c1cccc(NC(=S)NC(=O)c2ccc(Br)cc2)c1 | inconclusive: 41.4%
O=C(NC(=S)N1CCN(Cc2ccccc2)CC1)c1cccnc1 | inconclusive: 46%
O=C(c1cccc([N+](=O)[O-])c1)N1CCc2ccccc21 | inconclusive: 43.6%
CCCCCSc1nnc(C)c(=O)[nH]1 | active: 90.6%
O=C(NC1CCCCCCC1O)c1ccccc1 (configuration not stated) | active: 57.1%
O=C(O)CC1S/C(=N/N=C/c2ccc(Br)cc2)N(c2ccccc2)C1=O (configuration not stated) | active: 75.2%
CC1=C(C(=O)N2CCOCC2)CC(CC(=O)NCCCN(C)C)C(=O)N1CCC1=CCCCC1 (configuration not stated) | inactive: 10.3%
O=C(c1cccc(Cl)c1)N1CCN(c2ccc(N3CCOCC3)nn2)CC1 | inconclusive: 46.1%
CCS(=O)(=O)N[C@H]1C=C[C@H](CC(=O)N2CCCCC2)O[C@H]1CO | inconclusive: 42.8%
CC1=C(Cl)C2=NS(=O)(=O)CCN2C=C1Cl | inconclusive: 47.5%
C=CCn1c(C)cc(C(=O)Cn2ncc(Cl)c(Cl)c2=O)c1C | inconclusive: 41.1%

SMILES | inhibition
Cc1ccc2nsnc2c1S(=O)(=O)N(Cc1ccco1)Cc1cc2cccc(C)c2[nH]c1=O | inconclusive: 46.8%
Cc1cc(C)n2c(SCc3ccc(Br)cc3)nnc2n1 | inactive: 4.89%
CCOC(=O)c1cnn2c(C)cc(-c3ccc(F)cc3)nc12 | inactive: 2.45%
COc1ccc(/C=N/NC(=O)Cn2cnc3ccccc3c2=O)cc1OC | inconclusive: 52.6%
CCc1ccc(C(=O)NNC(=O)Cn2c(=O)cnc3ccccc32)cc1 | inconclusive: 40.2%
Cc1ccccc1C(=O)Nc1ccc(C(=O)O)cc1NC(=O)c1ccccc1C | inconclusive: 41.4%
CCOC(=O)/C(C#N)=C1/C(=O)N(Cc2ccccc2)c2ccccc21 | active: 72.9%
COc1ccccc1/C=C/C1(C(=O)NC2CCCC2)CC(=O)N1c1ccc(C)cc1 (configuration not stated) | inactive: 2.31%
COc1ccc2sc(C)[n+](C)c2c1 | inconclusive: 55.1%
Cc1cc(=O)[nH]c(NN)n1 | inconclusive: 50.2%
COc1ccc(C(=O)Nc2cc(Cl)ccc2-n2cncn2)c(OC)c1OC | inconclusive: 47.2%
COCC#Cc1cnc2c(c1)C(=O)N([C@H](C)CO)C[C@@H](C)[C@@H](CN(C)C(=O)c1cccnc1)O2 | inconclusive: 44.4%
COc1ccc(Cl)cc1NC(=O)NCC1CCN(C(=O)OC(C)(C)C)CC1 | inconclusive: 50%
COc1ccc(-c2cnc3c(c2)C(=O)N([C@H](C)CO)C[C@H](C)[C@@H](CN(C)C(=O)C2CCC2)O3)cc1 | inconclusive: 43.9%
CC(=O)Nc1nc(C)c(Oc2ccc(Cl)cc2)c(=O)[nH]1 | inconclusive: 45%
COc1ccc(NC(=O)N(C)C[C@@H]2OCCCC[C@@H](C)Oc3ccc(NC(=O)NC(C)C)cc3C(=O)N([C@H](C)CO)C[C@H]2C)cc1 | inactive: -15.2%
CN(C)c1ccc(/C=C(\C#N)c2ccccc2)cc1 | inactive: -2.12%
C=CC(=O)NC(C)(C)Cc1ccccc1 | inconclusive: 44%
N=C1C(c2nc3ccccc3s2)=C(O)CN1NC(=O)c1ccc([N+](=O)[O-])cc1 | active: 100%
Cc1[nH]c2ccccc2c1C(=O)/C=C/c1ccccc1 | active: 70.7%
COc1cccc(NC(=O)N2CCN(c3cccc(C)c3)C(C)C2)c1 (configuration not stated) | inconclusive: 45.4%

SMILES | inhibition
Cc1ccc(-n2c(O)c(C=NC3CCS(=O)(=O)C3)c3ccccc3c2=O)c(C)c1 (configuration not stated) | active: 56.9%
CCOC(=O)C1=C(Nc2ccccc2)OCC1=O | inconclusive: 46.5%
O=C(O)CSc1nnc(COc2cccc3ccccc23)o1 | inconclusive: 42.2%
Cc1cc(C)c2cc(CN(Cc3ccco3)C(=O)NCc3ccccc3)c(=O)[nH]c2c1 | inactive: -7.72%
C[C@@H]1CN([C@H](C)CO)C(=O)Cc2cc(NC(=O)Nc3ccccc3)ccc2O[C@H]1CN(C)Cc1ccccc1 | inconclusive: 61.1%
CCC(=O)N[C@H]1CC[C@H](CC(=O)OC)O[C@H]1CO | inconclusive: 43.4%
CCN(CC)CC#CCOC(c1ccccc1)c1ccccc1 | inconclusive: 44%
Cc1noc(C)c1NC(=O)N[C@H]1C=C[C@H](CC(=O)NCc2ccc(Cl)c(Cl)c2)O[C@H]1CO | inconclusive: 49.2%
COc1ccc(S(=O)(=O)Nc2ccc3c(c2)C(=O)N([C@H](C)CO)C[C@H](C)[C@H](CN(C)S(=O)(=O)c2cn(C)cn2)OCCCC[C@@H](C)O3)cc1 | inconclusive: 55.4%
Cc1ccc(NC(=O)c2ccc(NCC3CCCO3)c([N+](=O)[O-])c2)cc1Cl (configuration not stated) | inconclusive: 43.3%
CCOc1ccc(Nc2oc(-c3cccc(Cl)c3)nc2C#N)cc1 | inactive: 7.02%
CCCCN(C(=O)CCC(=O)Nc1cc(C)on1)C(C(=O)NC1CCCC1)c1ccc(OC)cc1 (configuration not stated) | inconclusive: 45.5%
NS(=O)(=O)c1ccc(CCNC2CC(=O)N(Cc3ccccc3)C2=O)cc1 (configuration not stated) | inconclusive: 46.1%
COc1ccccc1C(=O)Nc1ccc2c(c1)C(=O)N(C)C[C@H](OC)[C@H](C)CN(CC1CC1)[C@@H](C)CO2 | inconclusive: 52.1%
Cc1cc2oc(=O)cc(CN3CCC(C)CC3)c2cc1C | inconclusive: 41.9%
COc1cc(CNCCN2CCOCC2)ccc1OCc1ccc(Cl)cc1Cl | active: 101%
O=C(Nc1ccc([N+](=O)[O-])cn1)c1ccc(Br)o1 | inconclusive: 43%
C[C@@H]1CN([C@H](C)CO)C(=O)c2cc(-c3cccnc3)cnc2O[C@H]1CN(C)Cc1ccc(-c2ccccc2)cc1 | inactive: -8.84%
C[C@H]1CN([C@@H](C)CO)C(=O)c2cccc(NC(=O)c3ccncc3)c2O[C@H]1CN(C)C(=O)Nc1ccc2c(c1)OCO2 | inconclusive: 42.1%
Cc1ccc2[nH]cc(C(=O)CN3CCN(c4ccccc4F)CC3)c2c1 | inconclusive: 48%
Cc1noc(C)c1NC(=O)N(C)C[C@@H]1Oc2c(NS(=O)(=O)c3cn(C)cn3)cccc2C(=O)N([C@@H](C)CO)C[C@@H]1C | inconclusive: 54%

SMILES | inhibition
COc1ccc(Nc2ccnc3ccccc23)cc1 | active: 51.2%
CN(c1ncnc(N)c1[N+](=O)[O-])C1CCS(=O)(=O)C1 (configuration not stated) | inconclusive: 58.3%
Cc1ccc(OCC(=O)Nc2ccccc2C(N)=O)cc1 | inactive: 9.05%
C[C@@H]1CN([C@H](C)CO)C(=O)c2cccc(N(C)C)c2O[C@@H]1CN(C)Cc1ccccc1 | inactive: 11.9%
C=C1C(=O)[C@]23C[C@H]1CCC2[C@@]1(C)C(C[C@@H]3O)[C@](C)(C(=O)OC)CC[C@@H]1O (some centres not stated) | active: 92.5%
COc1ccc(OC)c(C(=O)/C=C/c2ccccc2C(F)(F)F)c1 | active: 46.2%
Cc1cccc(-c2nsc(SCC(=O)N3CCCC3)n2)c1 | active: 95.5%
COc1ccc(S(=O)(=O)N(C)C[C@H]2Oc3cc(C4=CCCC4)ccc3S(=O)(=O)N([C@H](C)CO)C[C@@H]2C)cc1 | inconclusive: 51.1%
O=C(Cc1ccccc1)Nc1ccc2c(c1)C(=O)N(CC1CCCO1)C2=O (configuration not stated) | inactive: 5.49%
Cc1ccc(Nc2ccccc2)cc1 | inactive: -3.42%
O=C(OCn1ncc(Br)c(Br)c1=O)c1ccc(F)cc1 | inconclusive: 37.5%
Cn1nc(C(=O)N2CCCCC2)c2c1-c1ccccc1S(=O)(=O)C2 | active: 47.9%
CCCCCC(=O)N1C[C@H](n2cc(-c3ccc(F)cc3)nn2)[C@@H](O)C[C@@H]1c1ccc(C)cc1 | active: 66.6%
CN(C)C(=S)Nc1ccc(Br)c(Cl)c1 | inconclusive: 52.2%
Cc1ccc(Sc2ncnc3onc(C)c23)c(C)c1 | inconclusive: 42.5%
Cc1ccc(S(=O)(=O)Nc2ccc3c(c2)C(=O)N([C@H](C)CO)C[C@@H](C)[C@H](CN(C)S(=O)(=O)c2ccc(F)cc2)OCCCC[C@@H](C)O3)cc1 | inactive: -9.52%
CN1CCC(=NNC(=O)COc2ccc(Cl)cc2)CC1 | inactive: 1.52%
O=C(C[C@H]1CC[C@H](NS(=O)(=O)c2ccc(F)cc2)[C@H](CO)O1)NC1CCCCC1 | inactive: 21.5%
C[C@@H]1CN([C@@H](C)CO)C(=O)c2cc(-c3cccc(C#N)c3)cnc2O[C@H]1CN(C)C(=O)c1ccccn1 | inconclusive: 57.5%
